Data from the supplement of paper PMC11417369.
± gives the standard deviation of the averaged measurements. Some of the results follow.

System: PfAP2-G AP2 domain (GST-tagged)
Assay: gcPBM binding intensity (ln(normalized median fluorescence intensity)); higher = stronger DNA binding
In short: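 DNA-binding domains from P. falciparum, fused to GST and produced in E. coli, were put on an Agilent 4 × 180k double-stranded probe array for 1 h in 1× PBS holding 1% milk, 0.2 mg/ml BSA, 0.5% salmon testes DNA and 0.03% Triton X-100. Probes were primer-extended, 36 bp long and drawn from intergenic genomic regions, with negative controls included. After Alexa488 anti-GST antibody detection and a 488 nm scan, binding intensity was set as the highest Masliner-normalised natural-log median intensity across replicate spots of either probe orientation.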

Sequence	gcPBM binding intensity (ln)
TATTAAATTTATCGGAGTACATTTAAATGTATATAC [XGTACX_site7975]	11.6 ± 1.1
TATATACGCAAACACACACACACATACACCCACATA [CACACA_site1724]	10.5 ± 0.52
TATTTAAAAAGAAAAAAAAAAAAAAAAATACATATA [CACACA_negctrl_site164]	9.595 ± 0.049
AAAAAAAAAAAATATACACACTAATATATTTTTTTA [CACACA_site4604]	9.685 ± 0.092
TATTACTATGTTATAACTTTTTTAAACGTGATCATA [TGCATGCA_negctrl_site128]	9.93 ± 0.18
TACTTACATTATTTATTTATATAAAAAGTTAATTAT [XGTACX_negctrl_site433]	9.82 ± 0.14
TGTATAAGTATTAATACACACACAAAATAATAAAAA [CACACA_site9156]	10.3 ± 0.15
AGTATTCATAAAAATACACACATGGAAAAATAAACT [CACACA_site6796]	10.22 ± 0.035
AAATTAAAATATAATACACACATAAAAAAAAAAAAA [CACACA_site4183]	9.82 ± 0.38
TATATATTTTTTTTTTGTACTCACAATATATGTATG [XGTACX_site8024]	11.3 ± 0.84
ATAATTAACAAATACACACACACACCCCCACAAAAA [CACACA_site518]	11.3 ± 0.77
TGTAATATAAAATTTTGTACTCAAAAATTTATATAT [XGTACX_site3252]	11.2 ± 1
ACTTATAAAAACATATACCCCATCGCATTTTTTCCA [XGTACX_negctrl_site177]	10.07 ± 0.028
AATTTTTTATATGTCACACATTTATTATTATTATTA [CACACA_site4198]	10.01 ± 0.042
ATAAAATTATATTTTGCATGCAGGCCTTTTTCTTAA [TGCATGCA_site1030]	9.76 ± 0.042
AAAAAAAAAAAAAACACACACATATATATATATATA [CACACA_site1891]	10.1 ± 0.4
TTTATTAGTAATTATACACACATATAAAATGAATAA [CACACA_site6754]	9.945 ± 0.078
TATATTTATAGGTACACACACACATATAAATAAATA [CACACA_site6345]	11.3 ± 0.98
ATAAAATATTTTTGAACATGCAGGTAAAAAATAAAA [TGCATGCA_site1019]	10.065 ± 0.007
AGAATATTATATTATGCATGCATATAGAAAAATATA [TGCATGCA_site302]	9.765 ± 0.064
TTCCAAACCTCATTATGGAAAATAAAAAAATAAAAA [XGTACX_negctrl_site17]	9.76 ± 0.11
TTCCAAAAAGTTATTACACACATATGTGCACATATA [CACACA_site6465]	10.5 ± 0.42
ATTTTCCATTGTGCTACACACAACGGTTCGCAATAA [CACACA_site2974]	10.3 ± 0.16
ATCTAATAAAAATACACACACATATGATTTGTGAAT [CACACA_site1867]	10.1 ± 0.28
